Holding throughout (assay): NCI tumour cell line growth inhibition, 48 h
Test [1] has as its system TK-10 renal.
The test system of test [2] is OVCAR-3 ovarian.
Test [3] relates to EKVX NSCLC.
Test [4] relates to KM20L2 colon.
Test [5] relates to HOP-18 NSCLC.
In test [6] the test system is OVCAR-5 ovarian.
Test [7] has as its system UACC-62 melanoma.
Test [8] concerns MOLT-4 leukemia.
Test [9] relates to K-562 leukemia.
Test [10] relates to SR leukemia.
The test system of test [11] is CCRF-CEM leukemia.
Test [12] has as its system HCT-116 colon.
The subject of test [13] is HOP-92 NSCLC.
Test [14] deals with HS 578T breast.
The test system of test [15] is SN12C renal.
In test [16] the test system is HCT-15 colon.
In test [17] the test system is HT29 colon.
Test [18] concerns UO-31 renal.

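Growth conditions: 96-well plates. Treatment: test compound, 48 hours, 5 concentrations. Analysis: linear interpolation between bracketing concentrations; unreached endpoints set to highest concentration. GI50 = concentration required for 50% inhibition of growth.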 Some entries of the source have several records that differ or are many. The other results are left out here. There may be further records. For some assays here: A record mostly stands for its own series of concentrations, not given here; a value can be the end of its range.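 Definition used: TGI = concentration required for complete inhibition of growth.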 For some assays here: The records of an entry are repeated measurements across runs, samples, wells, individuals or studies. Records carry a tag for their origin. A, B and so on number the origins entry by entry. Square brackets hold non-standard residues; d marks the D form. Peptide text beside a SMILES is read from it. * marks the point of attachment. ξ: configuration not given here. ξNMe2Val = CC(C)C(C(=O)*)N(C)C; NMeV = CN[CH](C(=O)O)C(C)C; NHBn = c1ccc(CN*)cc1

Four molecules from PubChem BioAssay (NCI) can be followed below.

Turning to `COC(=O)[C@@H]1c2cc3c(c(O)c2[C@@H](OC2OC(C)C(OC)C(C)(OC)C2OC)C[C@]1(C)O)C(=O)c1c(O)cc2c(c1C3=O)O[C@H]1O[C@]2(C)[C@H](O)[C@@H](N(C)C)[C@@H]1O` (stereo not given in full), the TGI in test [1] was 821 nM and 12.1 µM; in [2], 373 nM and 20.3 µM; in test [3], 126 nM and 1.95 µM; in test [4] it was 165 nM and 11.9 µM; in [5], 220 nM and 4.7 µM; in test [6], 466 nM and 6.03 µM.
On to `CN1C=c2c3c(ccc2=C2C=CC4C=C5OCOC5=CC4=C21)OCO3` (stereo not given), for which the TGI in test [7] was 387 nM [sample A, mean of 2 tests] and 4.96 µM [sample B, 1 test]; in [8] it was 729 nM [sample A, mean of 2 tests] and 13.6 µM [sample B, mean of 2 tests]; in test [9], 2.32 µM [sample A, mean of 2 tests] and > 100 µM [sample B, mean of 2 tests]; in test [10], 477 nM [sample A, 1 test] and 26.2 µM [sample B, 1 test]; in [11], 664 nM [sample A, mean of 2 tests] and > 39.4 µM [sample B, mean of 2 tests].
As to `CC(C)C(NC(=O)C(C(C)C)N(C)C)C(=O)N(C)C(C(=O)N1CCCC1C(=O)N1CCCC1C(=O)NCc1ccccc1)C(C)C` (stereo not given) (ξNMe2Val-V[NMeV]PP-NHBn; configuration not given here), the TGI was 411 nM and 13.4 nM in test [12]; 555 nM and > 100 µM in test [13]; 142 nM and 50.2 µM in test [14]; 0.69 nM and > 100 µM in [15]; 0.402 nM and > 100 µM in test [16]; < 0.1 nM and > 100 µM in test [17].
Consider `CC[C@H](C)[C@H](NC(=O)[C@H]1CCCCN1C)C(=O)N(C)[C@H](C[C@@H](OC(C)=O)c1cccc(C(=O)N[C@@H](Cc2ccccc2)C[C@H](C)C(=O)OC)n1)C(C)C`, for which the GI50 in test [18] is 50.4 nM and 561 nM; in test [1] it was 48.1 nM and 9.38 µM. In addition, in test [13], the TGI was 85.2 nM and > 25 µM.
